Assay results reported in PubChem BioAssay AID1508623 (National Center for Advancing Translational Sciences (NCATS), 2021).
About 450 (0.94%) of roughly 48,000 compounds were called active. Another 19% or so got no clear call; they are omitted. Calls follow the shape of the dose curve; as a rule, active = well fitted inhibition curve with a large enough effect; inconclusive = small, poorly fitted or top-dose-only effect; inactive = no such curve, though single readings can be large or run the other way. This is one part of the list.

Experiment: Primary qHTS for Identification of Small Molecule Inhibitors of Huntingtin Promoter Activity; also: nearly all actives have a fitted effect of over 50% in size
Settings: HEK293 HTT promoter firefly luciferase reporter (activity 0% = vehicle and -100% = no light), 24 h; series mostly up to 57.5 µM; activity change, negative = inhibition: at the top concentration
Outline: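 Firefly luciferase readout (Dual-Glo, 10 min RT) after 24 h, 37 °C compound exposure (final up to 57.5 uM) of HEK293 reporter cells cultured 24 h beforehand; PTC124 at 50 uM final as control inhibitor; activity scaled vehicle 0%, zero RLU -100%.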

Activity change, negative = inhibition, inactive:
COc1ccc(C2=NN(CC(=O)NCCCN(C)c3ccccc3)C(=O)CC2)cc1 -9.68%
COC(=O)c1cc2sc(C)cc2n1Cc1ccc(Br)cc1F -18.2%
COCCNC(=O)C(=O)NCC(c1cccnc1)N1CCN(c2ccccc2F)CC1 (stereo unspecified) -19.6%
Cc1ccc2oc3c(c(=O)c2c1)C(c1ccc(F)cc1)N(c1nc(C)c(C)s1)C3=O (stereo unspecified) 0.148%
COc1ccc(C2CC(=O)Nc3c2c(=O)[nH]c2nc4ccccc4n32)cc1OC (stereo unspecified) -11.2%
COc1ccccc1Nc1nc2ccc(Cl)cc2nc1-n1nc(C)cc1C 12.7%
COc1ccc(NC(=O)c2nc3nc(C)cc(C(F)F)n3n2)c(C)c1 12.3%
COc1ccc(C=Cc2cc(OC)c(OC)c(OC)c2)cc1O -26.8%
CCOC(=O)c1cccc(NC(=O)C2CCN(S(=O)(=O)c3cn(C)cn3)CC2)c1 -12.8%
Cc1ccc(C)c(NS(=O)(=O)c2cc3c(cc2Cl)NC(=O)CO3)c1 -29.6%
CCc1ccc(NC(=O)N2CC(C)Oc3ccc(C)cc32)cc1 (stereo unspecified) -1.68%
CC(C)(C)OC(=O)N1CCC(c2c(C(=O)NCCN3CCC(Cc4ccccc4)CC3)cnn2-c2ccccc2)CC1 -17.4%
COc1cc2ccccc2cc1C(=O)Nc1ccc2oc(-c3cccc(Cl)c3Cl)nc2c1 8.6%
COc1ccc(-n2cc(-c3ccccc3)nc2SCC(=O)Nc2ccccc2)cc1Cl -23.4%
CCCn1c(NCc2ccccc2C)nc2ccccc21 17.4%
CCc1ccc(S(=O)(=O)c2nnn3c2nc(N2CCCC2)c2sccc23)cc1 -5.52%
Cc1ccccc1C1C=C(c2ccc(Cl)cc2)Nc2nnnn21 (stereo unspecified) -28.5%
COc1ccc(NC(=O)COCc2cc(-c3cccs3)on2)cc1 -1.86%
CN1C(=O)Cc2cc(S(=O)(=O)CCC(=O)N3CCN(c4ccccc4F)CC3)ccc21 -17.4%
COc1ccc(-c2cc(C(F)(F)F)n3nc(C(=O)Nc4cccc(Cl)c4C)cc3n2)cc1 -22.5% [at 11.5 µM]
CCOC(=O)c1ccc(NC(=O)Cn2cnc(S(=O)(=O)N3CCCC3)c2)cc1 -17.5%
CCOc1ccc(OCC)c(NC(=O)CCc2c(C)nc3c(c2C)c(=O)n(C)c(=O)n3C)c1 -4.74%
CCSc1ncc(Cl)c(C(=O)Nc2c(C(=O)Nc3ccc(Cl)cc3)oc3ccccc23)n1 5.99%
O=C(c1ccc2c(c1)N(Cc1ccccc1)C(=O)c1ccccc1S2(=O)=O)N1CCN(c2ccccn2)CC1 -13.8%
CCOc1ccccc1CNC(=O)c1cc(-c2ccc(OC)cc2)nc2ccc(C(C)C)cc12 -7.11%
COc1cc(C2c3c(oc4ccccc4c3=O)C(=O)N2c2nnc(C(C)C)s2)cc(OC)c1OC (stereo unspecified) -12.5%
COc1ccc(CNC(=O)c2ccc3c(c2)nc2n3CCCCC2)c(OC)c1 52.1%
CCOC(=O)c1cccc(NS(=O)(=O)c2cn(C)c(C)n2)c1 -0.844%
COc1ccc(/C=C/c2noc(-c3ccccc3O)n2)cc1OC 1.39%
Cc1ccc(Cn2ccn(Cc3ccccc3C)c(=O)c2=O)cc1 -25.9%
COC(=O)c1ccccc1NC(=O)Cn1c(=O)n(-c2ccc(Cl)cc2)c(=O)c2c(C)c(C)sc21 -3.47%
COc1cccc(-c2cc(C(=O)Nc3ccc(C)cc3)[nH]n2)c1 53.8%
COc1ccc(C(=O)N2CCc3cc(OC)c(OC)cc3C2COc2ccc3c(C)cc(=O)oc3c2)c(OC)c1 (stereo unspecified) -12.1%
Cc1cc(C)n(-c2nc3ccccc3nc2Nc2cc(C(=O)O)ccc2C)n1 -4.76%
Cc1ccc(CN2CCN(CC(=O)NCc3ccccc3Cl)C2=O)cc1 -5.31%
Cc1cc(C)cc(-n2nnc(-c3nc(-c4ccccc4F)no3)c2C)c1 7.23%
CCOc1ccccc1NC(=O)CN1C(=O)C2(SCC(=O)N2c2cccc(F)c2)c2ccccc21 (stereo unspecified) -17.2%
Cc1c(Cl)cccc1NC(=O)CCn1nc(C)c2c(C)n(-c3ccccc3)nc2c1=O -7.54%
COc1ccc(S(=O)(=O)N(CC(=O)NCc2ccc(C)cc2)c2ccc(Cl)cc2)cc1 -21.2%
COc1ccc(NC(=O)c2sc3nc(C)c(C(=O)Nc4ccc(Cl)cc4)c(-c4ccc(Br)cc4)c3c2N)cc1 -24%
CCOc1ccc(C(=O)N2CCCCC2CCN2CCOCC2)cc1 (stereo unspecified) -5.4%
COC(=O)C(CCSC)NC(=O)c1c(C)oc2ncn(CC(C)C)c(=O)c12 (stereo unspecified) 2.94%
Cc1ccc(NC(=O)C(=O)NCC(c2cccnc2)N2CCN(C)CC2)cc1F (stereo unspecified) -14.2%
Cc1c(Cl)cccc1NC(=O)CSc1ncccc1C(=O)Oc1ccccc1Cl 1.57%
CCOc1ccc(NC(=O)Cn2ccn(-c3ccc(F)c(F)c3)c(=O)c2=O)cc1 -7.18%
COc1ccc(CNC(=O)c2cccc(-n3cnc4cccnc43)c2C)cc1 -17.5%
COc1cccc(C(=O)Nc2ccc(-c3cn4cccnc4n3)cc2)c1OC 10.3%
COc1cc2ccccc2cc1C(=O)Nc1ccc(Cl)c(-c2nc3ccccc3o2)c1 -26.8% [at 11.5 µM]
CCn1ccc2cc(S(=O)(=O)N3CCC(C(=O)NCCc4ccc(C)cc4)CC3)ccc21 -4.11%
COc1ccc(NC(=O)CSCc2cnn(-c3ccccc3)c2-n2cccc2)cc1 -22.3%
CCC(C)NC(=O)c1ccc2nc(Cc3ccc(OC)cc3)oc2c1 (stereo unspecified) -20.7%
COc1cc(C(=O)N2CCN(CCc3ccccn3)CC2)cc(OC)c1OC -15.6% [at 11.5 µM]
Cc1ccc(N(CC(=O)Nc2cc(C)cc(C)c2)S(=O)(=O)c2cccc3nonc23)cc1 -4.77%
NS(=O)(=O)c1ccc(NC(=O)c2ccc3c(c2)CCN3S(=O)(=O)c2ccccc2)cc1 -22.9%
CC(CC(=O)Nc1ccc(Br)cc1F)S(=O)(=O)c1ccc2c(c1)NC(=O)CO2 (stereo unspecified) -2.82%
CC(C)c1ccc(C2N=C(N)Nc3nc4ccccc4n32)cc1 (stereo unspecified) -15.8%
Cc1c(Cl)cccc1NC(=O)C(C)n1nnc2sc3c(c2c1=O)CCCC3 (stereo unspecified) 5.62%
Cc1c(C)n(C)c2ccc(C(=O)N3CCN(c4ccccc4)CC3)cc12 -4.32%
Cc1cc(C)cc(NC(=O)Cn2c(=O)c3ccccc3n3nncc23)c1 -11.1%
CCOC(=O)c1ccccc1NC(=O)c1sc2nc3n(c(=O)c2c1C)CCCC3 4.36%
CCc1ccc(CNC(=O)CN2C(=O)c3cccnc3Oc3ccc(C)cc32)cc1 4.19%
